In ChEMBL document CHEMBL4689842, “EUbOPEN Chemogenomics Library wave 1” (2021):

Tests used:
Type in all cases: toxicity, cell-based
[1] = tested on: HEK-293T; test: Multiplex assay against HEK293T; settings: human, 10 µM, compound concentration 10 uM;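 as to Population Tubulin-Different-Phenotype (%): share of the cells with healthy nuclei that show this phenotype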
Method in brief: (§1)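 Values for tubulin, mitochondrial-mass and membrane-permeability phenotypes are per cents of cells with healthy nuclei. These cells were identified by CellPathfinder machine-learning gating of live cells that had been stained at seeding with Hoechst33342, BioTracker Green Microtubule Cytoskeleton Dye, MitoTracker Red and Annexin V Alexa Fluor 680 and imaged on a CQ1 microscope at 37°C and 5% CO2 after compound addition. The gating first set Hoechst high-intensity objects apart from normal cells, then split normal cells into healthy, pyknosed or fragmented nuclei, and pyknosed cells into mitotic or apoptotic.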

[2] = tested on: Fibroblast; test: Multiplex assay against human fibroblast; method in brief: as §1
[3] = tested on: U2OS; test: Multiplex assay against U2OS; settings: human; method in brief: as §1
[4] = 12 h, 10 µM, compound concentration 10 uM, replicate 1
[5] = 12 h, 10 µM, compound concentration 10 uM, replicate 2
[6] = 24 h, 10 µM, compound concentration 10 uM, replicate 1
[7] = 24 h, 10 µM, compound concentration 10 uM, replicate 2
[8] = 12 h, 1 µM, compound concentration 1 uM, replicate 1
[9] = 12 h, 1 µM, compound concentration 1 uM, replicate 2
[10] = 24 h, 1 µM, compound concentration 1 uM, replicate 1
[11] = 24 h, 1 µM, compound concentration 1 uM, replicate 2

COc1cc(N2CCC(N(C)C)CC2)ccc1Nc1ncc(Cl)c(Nc2ccccc2P(C)(C)=O)n1
Population Apoptotic (%) ([1]; 12 h, replicate 1): 70% and 21%
Population Mitochondria Different-Phenotype (%) ([1]; 12 h, replicate 1): 100% and 25%
Population Apoptotic (%) ([1]; 12 h, replicate 2): 58% and 12%
Population Healthy Nuclei (%) ([1]; 12 h, replicate 2): 24% and 79%
Population Pyknosed Nuclei (%) ([1]; 12 h, replicate 2): 72% and 16%
Total Cell Count ([1]; 12 h, replicate 2): 142 and 933
Population Apoptotic (%) ([1]; 24 h, replicate 2): 79% and 24%
Population Healthy Nuclei (%) ([1]; 24 h, replicate 2): 20% and 81%
Population Mitotic Cells (%) ([1]; 24 h, replicate 2): 20% and 75%
Population Pyknosed Nuclei (%) ([1]; 24 h, replicate 2): 72% and 13%
Total Cell Count ([1]; 24 h, replicate 2): 149 and 899
Population Membrane Permeable-Phenotype (%) [2, 4]: 23% and 1%
Population Tubulin-Different-Phenotype (%) [2, 4]: 69% and 16%
Population Mitochondria Different-Phenotype (%) [2, 5]: 16% and 85%
Population Mitotic Cells (%) [2, 5]: 62% and 12%
Population Membrane Permeable-Phenotype (%) [2, 6]: 17% and 3%
Population Tubulin-Different-Phenotype (%) [2, 6]: 70% and 13%
Population Membrane Permeable-Phenotype (%) [2, 7]: 0% and 100%
Population Mitochondria Different-Phenotype (%) [2, 7]: 25% and 85%
Population Mitotic Cells (%) [2, 7]: 33% and 7%
Population Pyknosed Nuclei (%) [2, 7]: 17% and 58%

C1=N/C2=N/c3ccc(OCCN4CCCC4)c(c3)COC/C=C\COCc3cccc(c3)C(=C1)N2
Population Apoptotic (%) ([1]; 12 h, replicate 1): 46%, 26%, 89%
Population Healthy Nuclei (%) ([1]; 12 h, replicate 1): 12%, 31%, 0%
Population Mitochondria Different-Phenotype (%) ([1]; 12 h, replicate 1): 40%, 20%, 100%
Population Mitotic Cells (%) ([1]; 12 h, replicate 1): 53%, 73%, 10%
Population Tubulin-Different-Phenotype (%) ([1]; 12 h, replicate 1): 45%, 49%, 0%
Population Apoptotic (%) ([1]; 12 h, replicate 2): 50%, 83%, 20%
Population Fragmented Nuclei (%) ([1]; 12 h, replicate 2): 11%, 5%, 2%
Population Healthy Nuclei (%) ([1]; 12 h, replicate 2): 33%, 6%, 58%
Population Hoechst High Intensity Objects (%) ([1]; 12 h, replicate 2): 22%, 20%, 5%
Population Mitotic Cells (%) ([1]; 12 h, replicate 2): 49%, 16%, 79%
Total Cell Count ([1]; 12 h, replicate 2): 735, 219, 724
Population Healthy Nuclei (%) ([1]; 24 h, replicate 1): 0%, 15%, 33%
Population Mitochondria Different-Phenotype (%) ([1]; 24 h, replicate 1): 0%, 44%, 30%
Population Mitotic Cells (%) ([1]; 24 h, replicate 1): 12%, 41%, 70%
Population Tubulin-Different-Phenotype (%) ([1]; 24 h, replicate 1): 0%, 53%, 64%
Population Apoptotic (%) ([1]; 24 h, replicate 2): 86%, 74%, 24%
Population Fragmented Nuclei (%) ([1]; 24 h, replicate 2): 12%, 24%, 2%
Population Healthy Nuclei (%) ([1]; 24 h, replicate 2): 7%, 19%, 61%
Population Membrane Permeable-Phenotype (%) ([1]; 24 h, replicate 2): 30% and 4%
Population Mitotic Cells (%) ([1]; 24 h, replicate 2): 13%, 25%, 75%
Total Cell Count ([1]; 24 h, replicate 2): 213, 721, 724
Population Healthy Nuclei (%) [3, 4]: 19%, 13%, 53%
Population Membrane Permeable-Phenotype (%) [3, 4]: 16%, 78%, 38%
Population Mitochondria Different-Phenotype (%) [3, 4]: 94% and 23%
Population Mitotic Cells (%) [3, 4]: 12%, 11%, 44%
Population Healthy Nuclei (%) [3, 5]: 18%, 17%, 58%
Population Membrane Permeable-Phenotype (%) [3, 5]: 45%, 90%, 27%
Population Mitochondria Different-Phenotype (%) [3, 5]: 50%, 100%, 25%
Population Mitotic Cells (%) [3, 5]: 10%, 9%, 31%
Population Healthy Nuclei (%) [3, 6]: 0%, 14%, 56%
Population Membrane Permeable-Phenotype (%) [3, 6]: 100%, 84%, 30%
Population Mitotic Cells (%) [3, 6]: 1% and 17%
Population Fragmented Nuclei (%) [3, 7]: 52%, 4%, 15%
Population Healthy Nuclei (%) [3, 7]: 10%, 25%, 65%
Population Hoechst High Intensity Objects (%) [3, 7]: 16%, 32%, 9%
Population Pyknosed Nuclei (%) [3, 7]: 37%, 70%, 19%
Population Healthy Nuclei (%) [2, 4]: 15%, 52%, 54%
Population Mitochondria Different-Phenotype (%) [2, 4]: 75%, 48%, 5%
Population Pyknosed Nuclei (%) [2, 4]: 61%, 27%, 12%
Population Tubulin-Different-Phenotype (%) [2, 4]: 75%, 68%, 10%
Total Cell Count [2, 4]: 89, 287, 212
Population Healthy Nuclei (%) [2, 5]: 9%, 34%, 17%
Population Hoechst High Intensity Objects (%) [2, 5]: 39%, 31%, 10%
Population Membrane Permeable-Phenotype (%) [2, 5]: 16%, 5%, 90%
Population Mitochondria Different-Phenotype (%) [2, 5]: 33%, 0%, 100%
Population Mitotic Cells (%) [2, 5]: 31%, 55%, 9%
Population Tubulin-Different-Phenotype (%) [2, 5]: 16%, 29%, 100%
Population Healthy Nuclei (%) [2, 6]: 15%, 25%, 52%
Population Membrane Permeable-Phenotype (%) [2, 6]: 36% and 2%
Population Mitochondria Different-Phenotype (%) [2, 6]: 36%, 82%, 5%
Population Pyknosed Nuclei (%) [2, 6]: 48%, 42%, 13%
Total Cell Count [2, 6]: 83, 288, 243
Population Fragmented Nuclei (%) [2, 7]: 67%, 56%, 4%
Population Healthy Nuclei (%) [2, 7]: 9% and 30%
Population Membrane Permeable-Phenotype (%) [2, 7]: 33%, 0%, 81%
Population Mitochondria Different-Phenotype (%) [2, 7]: 33%, 0%, 100%
Population Mitotic Cells (%) [2, 7]: 7%, 42%, 3%
Population Pyknosed Nuclei (%) [2, 7]: 22%, 12%, 70%
Population Tubulin-Different-Phenotype (%) [2, 7]: 16%, 17%, 100%

CC(C)Oc1ccc(C(=O)N[C@H](CNC(=O)CN(C)C)Cc2ccc(-c3cn4cccc([C@H](C)O)c4n3)cc2)cc1Cl [GSK-923295A]
Population Membrane Permeable-Phenotype (%) ([1]; 12 h, replicate 1): 33% and 0%
Population Mitochondria Different-Phenotype (%) ([1]; 12 h, replicate 1): 23% and 100%
Population Mitotic Cells (%) ([1]; 12 h, replicate 1): 66% and 6%
Total Cell Count ([1]; 12 h, replicate 1): 516 and 143
Population Apoptotic (%) ([1]; 12 h, replicate 2): 67% and 17%
Population Fragmented Nuclei (%) ([1]; 12 h, replicate 2): 8% and 2%
Total Cell Count ([1]; 12 h, replicate 2): 132 and 948
Population Mitotic Cells (%) ([1]; 24 h, replicate 1): 7% and 58%
Total Cell Count ([1]; 24 h, replicate 1): 145 and 508
Population Apoptotic (%) ([1]; 24 h, replicate 2): 80% and 18%
Population Membrane Permeable-Phenotype (%) ([1]; 24 h, replicate 2): 1% and 21%
Population Mitotic Cells (%) ([1]; 24 h, replicate 2): 20% and 81%
Total Cell Count ([1]; 24 h, replicate 2): 142 and 1095
Population Membrane Permeable-Phenotype (%) [2, 4]: 35% and 10%
Total Cell Count [2, 4]: 71 and 502
Population Fragmented Nuclei (%) [2, 5]: 55% and 9%
Population Hoechst High Intensity Objects (%) [2, 5]: 34% and 2%
Population Mitochondria Different-Phenotype (%) [2, 5]: 21% and 89%
Total Cell Count [2, 6]: 102 and 537
Population Fragmented Nuclei (%) [2, 7]: 54% and 11%
Population Hoechst High Intensity Objects (%) [2, 7]: 49% and 2%
Population Membrane Permeable-Phenotype (%) [2, 7]: 13% and 53%

CS(=O)(=O)N1CCN(Cc2cc3nc(-c4cccc5[nH]ncc45)nc(N4CCOCC4)c3s2)CC1 [PICTILISIB]
Population Mitochondria Different-Phenotype (%) [3, 8]: 94% and 11%
Population Pyknosed Nuclei (%) [3, 8]: 42% and 10%
Population Mitochondria Different-Phenotype (%) [3, 9]: 90% and 20%
Population Pyknosed Nuclei (%) [3, 9]: 51% and 8%
Population Tubulin-Different-Phenotype (%) [3, 9]: 95% and 26%
Population Healthy Nuclei (%) [3, 10]: 16% and 80%
Population Hoechst High Intensity Objects (%) [3, 10]: 22% and 2%
Population Mitochondria Different-Phenotype (%) [3, 10]: 89% and 12%
Population Mitotic Cells (%) [3, 10]: 8% and 26%
Population Pyknosed Nuclei (%) [3, 10]: 66% and 8%
Population Tubulin-Different-Phenotype (%) [3, 10]: 89% and 22%
Population Membrane Permeable-Phenotype (%) [3, 11]: 95% and 12%
Population Mitochondria Different-Phenotype (%) [3, 11]: 100% and 17%
Population Pyknosed Nuclei (%) [3, 11]: 50% and 10%
Population Tubulin-Different-Phenotype (%) [3, 11]: 100% and 13%
Population Hoechst High Intensity Objects (%) [2, 8]: 16% and 49%
Population Tubulin-Different-Phenotype (%) [2, 8]: 14% and 80%
Population Mitochondria Different-Phenotype (%) [2, 9]: 0% and 45%
Population Mitotic Cells (%) [2, 9]: 20% and 64%
Population Pyknosed Nuclei (%) [2, 9]: 8% and 28%
Population Tubulin-Different-Phenotype (%) [2, 9]: 9% and 45%
Population Mitochondria Different-Phenotype (%) [2, 10]: 5% and 65%
Population Pyknosed Nuclei (%) [2, 10]: 12% and 38%
Population Tubulin-Different-Phenotype (%) [2, 10]: 15% and 76%
Population Membrane Permeable-Phenotype (%) [2, 11]: 36% and 0%
Population Mitochondria Different-Phenotype (%) [2, 11]: 0% and 100%
Population Pyknosed Nuclei (%) [2, 11]: 11% and 34%

For part of its entries the source gives two or more results. The list is limited to them. An entry can have further records. Values that stand side by side are repeats across runs, samples, wells, individuals or studies.
